Data reported in paper PMC4336329 (PLoS ONE, 2015).
The whole screen tested about 310,000 compounds, of which about 2,200 (0.71%) showed an effect of 50% or more. Effects have a minus sign here. The list shows a part of the results.

Biological target: human ether-à-go-go-related gene (hERG) potassium channel (human, UniProt Q12809)
Assay: primary screen, population patch clamp on CHO cells stably expressing hERG

Sequence of human ether-à-go-go-related gene (hERG) potassium channel (Q12809 whole entry, looked up): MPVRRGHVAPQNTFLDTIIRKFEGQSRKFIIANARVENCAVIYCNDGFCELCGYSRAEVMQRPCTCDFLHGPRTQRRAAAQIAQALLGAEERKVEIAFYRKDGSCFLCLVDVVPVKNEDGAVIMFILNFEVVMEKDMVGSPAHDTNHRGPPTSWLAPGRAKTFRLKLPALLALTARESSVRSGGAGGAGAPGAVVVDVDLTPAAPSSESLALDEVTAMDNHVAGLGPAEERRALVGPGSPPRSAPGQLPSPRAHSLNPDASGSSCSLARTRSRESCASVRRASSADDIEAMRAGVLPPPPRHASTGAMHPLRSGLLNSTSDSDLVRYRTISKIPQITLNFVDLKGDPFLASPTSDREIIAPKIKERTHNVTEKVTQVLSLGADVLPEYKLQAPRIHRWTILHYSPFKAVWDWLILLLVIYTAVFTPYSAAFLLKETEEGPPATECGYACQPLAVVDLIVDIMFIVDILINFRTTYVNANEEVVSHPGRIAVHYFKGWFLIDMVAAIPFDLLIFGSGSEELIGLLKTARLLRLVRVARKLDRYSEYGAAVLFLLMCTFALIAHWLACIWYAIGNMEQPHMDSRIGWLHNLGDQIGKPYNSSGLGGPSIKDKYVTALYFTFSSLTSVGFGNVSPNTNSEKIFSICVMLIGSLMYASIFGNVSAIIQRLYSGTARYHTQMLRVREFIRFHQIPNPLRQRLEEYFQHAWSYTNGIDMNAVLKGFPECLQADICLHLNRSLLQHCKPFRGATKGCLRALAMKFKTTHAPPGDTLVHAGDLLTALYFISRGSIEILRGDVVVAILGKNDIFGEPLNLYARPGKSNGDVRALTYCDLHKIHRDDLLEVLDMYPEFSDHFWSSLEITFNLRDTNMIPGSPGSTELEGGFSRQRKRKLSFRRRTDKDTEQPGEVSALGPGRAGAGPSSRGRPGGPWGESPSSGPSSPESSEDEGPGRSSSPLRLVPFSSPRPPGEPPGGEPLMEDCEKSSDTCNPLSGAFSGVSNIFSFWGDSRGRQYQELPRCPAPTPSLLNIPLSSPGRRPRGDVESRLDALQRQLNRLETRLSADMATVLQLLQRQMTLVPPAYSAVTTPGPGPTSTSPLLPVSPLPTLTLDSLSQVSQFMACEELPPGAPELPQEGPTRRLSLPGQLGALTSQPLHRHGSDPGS

SMILES | hERG current change (%, negative = inhibition) at 1uM
CCOC(=O)C1=C(c2ccccc2)NC(=O)N(C(C)=O)C1c1cccc([N+](=O)[O-])c1 (centres unmarked) | 10.2%
CC(CN1C(C)CCCC1C)OC(=O)c1cccc(F)c1.Cl (centres unmarked) | 8.45%
O=C(/C=C/c1ccccc1Cl)Nc1ccccc1 | 3.15%
CCCCN(CC)C(=O)C1CCC(=O)N(c2ccc(OC)cc2)C1c1ccc(OC)c(OC)c1 (centres unmarked) | 8.74%
CC(C)(C)Nc1nc(N2CCCC2)nc(N2CCCC2)n1 | 8.38%
Cc1ccc(S(=O)(=O)N2CC(=NO)C2)cc1 | 4.06%
O=C(NCc1cccc(C(F)(F)F)c1)C1CC(c2ccc(C(F)(F)F)cc2)=NO1 (centres unmarked) | 18.3%
COc1ccccc1/C=N/Nc1cc(C)nc2ccc(C)cc12 | 12.5%
Cc1ccc(-n2c(N)c(C(=O)Nc3ccccc3F)sc2=S)cc1C | 5.89%
CCC1=C(OC(=O)N(CC)CC)N2C(=O)OC(=NCCc3c[nH]c4ccccc34)[C@]2(C)[C@H]2C1=CC[C@H]1C(=O)NC(=O)[C@H]12 | 16.5%
CN(C)c1nc(Nn2cnnc2)nc(N(C)C)n1 | 14.7%
NC(=O)CSc1nc2sc(-c3ccccc3)cc2c(=O)n1N | 9.56%
Cc1cc(S(=O)(=O)Nc2nc(CN3CCOCC3)nc3sc4c(c23)CCCC4)ccc1F | 11.1%
Cc1ccc(OCCCC(=O)NC(C)c2ccccc2)c(C)c1 (centres unmarked) | -4.17%
CCCCN(C)C(=O)Cn1ncc2c3ccccc3n(CCC)c2c1=O | -1.29%
Cc1cc(C(=O)NCc2cc(C(=O)O)co2)co1 | 9.94%
COc1ccc(C(=O)COC(=O)c2nn(C)c(=O)c3ccccc23)c(OC)c1 | -4.01%
CCN(CC)S(=O)(=O)c1ccc(N2CCOCC2)c(NC(=O)c2cc(=O)[nH]c3ccccc23)c1 | 10.1%
Nc1nc(CSc2nc3ccccc3s2)nc(Nc2ccccc2)n1 | 13.4%
CCOc1ccc(S(=O)(=O)Nc2ccc(C(=O)NCC3(N4CCCCC4)CCCCC3)cc2)cc1 | -7.91%
COc1cccc(C2(O)CCSCC2CN(C)C)c1.Cl (centres unmarked) | 15.9%
COc1ccc(-c2nc3c(c(=O)[nH]c(=O)n3Cc3ccccc3)n2C)cc1 | 13.6%
Cc1ccccc1-c1cc2c(nn1)-c1ccccc1C2=O | 16.9%

SMILES | hERG current change (%, negative = inhibition) at 1uM
Cc1ccc(-c2nc3cccnc3s2)cc1NS(C)(=O)=O | 8.04%
COc1ccc(OC)c(C(=O)NC(CC(N)=O)c2ccc(N3CCC(Cc4ccccc4)CC3)c([N+](=O)[O-])c2)c1 (centres unmarked) | 5.2%
O=C(c1ccc(COCC(F)(F)F)o1)N1CCCC1 | 21.3%
Cc1ccc(NC(=O)N2CCN(C(=O)C3CCCO3)CC2)cc1 (centres unmarked) | 16.5%
O=C(Nc1ccccc1C(=O)Nc1nnc(C(F)(F)F)s1)c1ccccc1Cl | 14.5%
Cc1ccc(NC(=O)CCNS(=O)(=O)c2ccc3[nH]c(=O)oc3c2)cc1N(C)C | 13.4%
Cn1c(SCCOc2ccccc2Cl)nnc1-c1cccs1 | 5.91%
COc1cccc2cc(S(=O)(=O)c3ccc(C)cc3)/c(=N/NS(=O)(=O)c3ccc(C)cc3)oc12 | 1.59%
C[C@H]1CCC[C@H](O)CCCCCc2cc(O)cc(O)c2C(=O)O1 | -46.9%
Cc1ccc(-c2nnc(SCC(=O)NCCN3C(=O)CSC3=O)n2C)cc1 | 7.13%
Cn1ncc(Cl)c1C(=O)NCc1cc(C(C)(C)C)n[nH]1 | 15%
Cc1ccccc1C(=O)Nc1ccnn1C1CCN(Cc2ccc(CO)o2)CC1 | 1.49%
O=C(CCc1ccc(S(=O)(=O)NCCc2ccccc2)cc1)NCc1ccc2c(c1)OCO2 | 11.5%
Cc1ccc(Nc2ccc(C(=O)O)cc2N)cc1 | 8.99%
CCOc1ccccc1C(=O)NC1CC2CCCC(C1)N2Cc1nnnn1Cc1ccco1 (centres unmarked) | 13.8%
CCc1ccccc1NC(=O)CN(C)C(=O)Cn1cnc2ccc(Cl)cc2c1=O | 3.37%
COc1cccc(C(=O)NNS(=O)(=O)c2ccc(C)cc2)c1 | 13%
CC(=O)c1cccc(N(C(=O)c2ccco2)C(C(=O)NC2CCCC2)c2ccccc2F)c1 (centres unmarked) | 4.87%
COc1cccc(Nc2nc3ccccc3c(=O)[nH]2)c1 | 14.6%
CCOC(=O)CN1CCc2c(C)nc3c(-c4ccc(OC)c(OC)c4)cnn3c21 | -6.54%
O=C(NC1CCCC1)C(c1ccc(Cl)cc1)N1CCOCC1 (centres unmarked) | -0.429%
COc1ccc(-n2ccc(=O)c(C(=O)O)n2)c(OC)c1 | 7.94%
CCC1CCC(c2nnc(-c3ccc([N+](=O)[O-])cc3)o2)CC1 (centres unmarked) | 4.91%

SMILES | hERG current change (%, negative = inhibition) at 1uM
CC1CC(C)CN(CC(O)COc2ccc3c(c2)CCC3)C1.Cl (centres unmarked) | -14.7%
COC(=O)C(COC(=O)c1c(F)cccc1F)NC(=O)c1c(F)cccc1F (centres unmarked) | 16.2%
O=S1(=O)N=C(N=Nc2c(O)[nH]c3ccccc23)c2ccccc21 | -1.95%
Cc1c(NC(=S)NC(=O)CC(C)C)c(=O)n(-c2ccccc2)n1C | 7.84%
Cc1c(N=Cc2nc3ccccc3[nH]2)c(=O)n(-c2ccccc2)n1C | 7.88%
COc1ccccc1OCCC(=O)O | 14.1%
NC(=O)CC(NC(=O)Cc1cccc2ccccc12)c1ccc(N2CCN(c3ccccc3)CC2)c([N+](=O)[O-])c1 (centres unmarked) | 16.6%
COc1ccc2cc([C@@H](C)C(=O)[O-])ccc2c1.[Na+] | 2.48%
O=C(CN1CCN(c2ccc([N+](=O)[O-])cc2)CC1)Nc1ccccn1 | -75.8%
CCc1cccc(C)c1NC(=O)C1CCCN1C(=O)NCc1ccccc1 (centres unmarked) | 15.5%
NC(=S)N/N=C\c1c(OCc2ccccc2Cl)ccc2ccccc12 | 10.7%
CSc1nsc(SCC(=O)NC2CCCCC2)n1 | 13.1%
COCCNC(=O)/C(C#N)=C1\N=C(N)c2ccccc21 | 9.47%
COc1ccccc1C1CCN(Cc2ccccc2Cl)CC1 | 8.08%
CN1C(C(=O)NCc2ccco2)CC2Cn3c(nc4cc5ccccc5cc43)C21 (centres unmarked) | -0.0028%
Cc1ccc(NC(=O)c2ccccc2OCC(=O)c2ccccc2)cc1 | -1.66%
O=C(NCc1ccco1)c1cccc(Nc2nc3ccc(Br)cc3[nH]2)c1 | 16.6%
C=CCn1c(-c2ccc(=O)n(Cc3ccccc3)c2)n[nH]c1=S | 3.37%
Cc1oc(-c2ccccc2F)nc1CS(=O)CC(=O)NC1CCCC1 (centres unmarked) | 2.31%
COc1ccc2c(CSc3nc4nc(C)cc(C)n4n3)cc(=O)oc2c1 | 8.18%
CCOc1ccccc1NC(=O)NNC(=O)c1ccc2ccccc2c1 | 11.6%
COc1ccc(C(C)NC(=O)Cc2cccs2)cc1 (centres unmarked) | 12.4%
Cl.NCCc1nnc(SCc2c(F)cccc2Cl)o1 | 12.5%

SMILES | hERG current change (%, negative = inhibition) at 1uM
COC(=O)Cc1ccc(NC(=S)Nc2ccccn2)cc1 | 7.65%
CC1(C(=O)NNC(=O)c2ccc(=O)oc2)CC1Br (centres unmarked) | 16.8%
Cc1ccc(/C=C/C(=O)Nc2nc3ccccc3[nH]2)cc1 | -4.16%
CCCCCN(C(=O)NC(=O)Nc1ccccc1OC)S(C)(=O)=O | 12.4%
COc1ccc(-n2cnc3ccccc32)cc1 | 8.56%
Cc1ccc(C(=O)OCC(=O)NCCc2ccccc2)cc1S(=O)(=O)N1CCOCC1 | 9.31%
Cc1cc(C)cc(NC(=O)c2sc3nc4n(c(=O)c3c2C)CCC4)c1 | 7.14%
Cc1cc(C)c2c(CC(=O)O)coc2c1 | 7.05%
CS(=O)(=O)N1CCC(C(=O)NCc2ccc(Cl)cc2)CC1 | 8%
COc1cccc(CN2CCN(Cc3cccc(Br)c3)CC2)c1OC.O=C(O)C(=O)O | 2.52%
COc1cc(S(=O)(=O)N2CCN(C)CC2)c(OC)cc1Cl | 13%
C[C@@]12C(=O)Nc3ccc(Cl)cc3C(=O)N1[C@H]1c3ccccc3OC[C@@H]1[C@@H]2c1ccccc1 | 17.5%
COc1cc(NC(=O)CN2CCN(C(=O)C3CCCO3)CC2)c(OC)cc1Cl (centres unmarked) | 10.7%
COc1ccc(CN(C)CC(O)COc2ccc(C(=O)c3ccccc3)cc2)c(OC)c1OC (centres unmarked) | -37.5%
CCCC1=C(C(=O)OCC)C(c2cccs2)C(C#N)=C(N)O1 (centres unmarked) | 0.822%
CCN1CCN(c2ccc(S(=O)(=O)N3CCCCC3)cc2NC(=O)Cc2c(F)cccc2Cl)CC1 | 9.43%
COc1ccc(NC(=O)CNS(=O)(=O)c2ccccc2)cc1Cl | 11.3%
CCC1(C)N([O-])C(C)=C(c2ccccc2)[N+]1=O (centres unmarked) | 8.03%
COc1ccccc1CNC(=O)COC(=O)C1CCN(S(=O)(=O)c2ccc(C)c(C)c2)CC1 | 9.15%
CNC(=S)N1CCN(c2ccc(OC)cc2)CC1 | 12.8%
